# Source: the supplement of paper PMC3334620
# In all, about 33,000 sequences were measured (“E-score (-0.5 to 0.5)”: median about -0.017, highest 2% from about 0.3 on). Some of the results follow.
# Target: T1, Sut1 (UniProt P53032)
# T1 sequence: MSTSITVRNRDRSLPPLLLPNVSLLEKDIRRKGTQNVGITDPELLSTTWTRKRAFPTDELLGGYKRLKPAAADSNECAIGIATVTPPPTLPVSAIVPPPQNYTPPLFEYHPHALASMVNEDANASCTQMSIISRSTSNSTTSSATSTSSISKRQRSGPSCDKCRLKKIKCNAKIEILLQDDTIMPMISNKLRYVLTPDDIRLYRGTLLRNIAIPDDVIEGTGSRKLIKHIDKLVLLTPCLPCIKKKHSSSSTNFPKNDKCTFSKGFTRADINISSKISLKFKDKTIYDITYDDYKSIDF
# Assay: PBM E-score (8-mer binding enrichment) (E-score (-0.5 to 0.5)); higher = stronger / more preferred TF binding; most listed sequences are background and not binding sites
# Conditions: protein concentration: 200 nM; construct: GST-full length
# In short: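 GST-tagged yeast TFs (full-length or DNA-binding domain) were made by PURExpress in vitro transcription/translation and applied at about 100-200 nM to universal all-10-mer Agilent arrays. The arrays were made double-stranded by primer extension, on fresh or once-stripped slides. Bound protein was detected with fluorescent anti-GST, and scans were normalised with masliner. Each ungapped eight-base word, pooled with its reverse complement, received an E-score (modified Wilcoxon-Mann-Whitney statistic) from the Universal PBM Analysis Suite.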
row,Sequence,PBM E-score
1,AAGACTAC,0.0293
2,GCATCAAA,0.14
3,AGATCCTA,-0.199
4,GGCGGCTA,-0.0541
5,CCTCGCCA,-0.267
6,AGACGCAC,0.0364
7,CCACGTGG,-0.454
8,TTCGAGAA,0.0303
9,ACCCACGC,-0.106
10,CACCTTGA,-0.262
11,CCGTAAGC,0.0479
12,ACAAATCC,0.143
13,AACACGGG,-0.148
14,GGGTCATA,-0.152
15,GTGGTCGA,-0.234
16,CCGGCGGA,0.153
17,CATCAGAG,-0.109
18,GCTTGAAC,0.106
19,CCGGACCG,0.191
20,TACAAAGA,0.149
21,ACCGATAG,-0.133
22,AGCAATCC,0.00583
23,GGGACACC,-0.231
24,ACGTTGTA,0.0407
25,CAAGTGCC,-0.239

row,Sequence,PBM E-score
1,ACGGTGCA,-0.124
2,ACTGGGCG,-0.121
3,CTCGGGAC,-0.0744
4,TACTGTGA,0.0644
5,AACTGAAG,-0.00359
6,AGACAGTC,-0.153
7,GCAATGGC,-0.165
8,TCAAGGCA,-0.158
9,CCTCGGAG,0.446
10,AGCCAGAA,-0.143
11,CAGGATAA,0.0352
12,AGGTCCAA,-0.256
13,AACGGATT,0.211
14,CAATATTC,0.0259
15,CTCATTTA,0.0854
16,ATGCGGGG,-0.183
17,CCAGGAAC,-0.254
18,CTGATTTC,0.0415
19,CAGGGCCA,-0.316
20,ACGATCCT,-0.0718
21,AACGCTAT,-0.00198
22,CTCAGCCA,-0.0785
23,CACACCCG,-0.212
24,GCCAAAAC,-0.0126
25,TAATAAAA,0.332

row,Sequence,PBM E-score
1,CGAATGCG,0.2
2,AAGAGGGC,-0.26
3,ACTGTCCC,-0.012
4,TAGTCGCA,-0.0489
5,CAAATTAG,0.108
6,AAATGTTA,0.124
7,AAGGATGG,-0.0959
8,ATCGACCC,0.0935
9,GGCTGTAC,-0.0774
10,GGGCTGCA,-0.105
11,GGTAATGA,0.116
12,AGGTCAAC,-0.0466
13,GCTAGAAC,-0.0659
14,ATCGTCGA,-0.145
15,CCTGGCCA,-0.201
16,GATGCGGA,0.0544
17,CGTCCGCC,-0.124
18,ATAATACC,0.267
19,GTCTCTCA,-0.0341
20,CCAGATCA,0.0529
21,GGGTGCAC,-0.149
22,CCTGGAAC,-0.105
23,GCACAACA,-0.0706
24,TCGCTCCA,-0.123
25,AAGCTATG,-0.0822

row,Sequence,PBM E-score
1,GGTCGCTA,-0.175
2,AGGACGCA,-0.167
3,CCCCGCGG,0.0405
4,ACCACTGC,-0.216
5,AAGAGCAG,-0.289
6,GATCGTCA,0.0615
7,GGTTTATA,0.0479
8,ACTCGGAT,0.0613
9,GACTTCAA,0.00724
10,CGCACGAA,0.0895
11,AGCCCGAA,0.0246
12,CAAGTCGA,-0.109
13,AGAGAACT,0.0621
14,CCGGTGTC,0.106
15,ACAGCGTG,-0.171
16,ACTTGGTG,-0.17
17,CACGTGAC,-0.209
18,CAATTAGA,0.149
19,GCTTTTGA,-0.0693
20,CATCATGG,-0.172
21,AATAATCA,0.164
22,CTCTTCAC,-0.076
23,CCATCGGC,-0.0803
24,CATTTTAA,0.188
25,CCGCGATA,0.0966

row,Sequence,PBM E-score
1,AGCTCCAG,-0.251
2,GCCGGTTA,-0.261
3,GCACGAGA,-0.0526
4,AATCGCTC,-0.0871
5,CCGGTAGA,0.226
6,AGAGCACA,-0.0607
7,TACGACCA,-0.0801
8,ACCTATAT,0.228
9,ACGTGAGT,-0.212
10,GAAGTATC,0.0554
11,ACTGGGAA,0.0129
12,AAGTTATG,0.243
13,ATCTACGA,-0.0493
14,CAACCAGG,-0.232
15,GGTAAATA,0.175
16,CTTAAGTA,0.14
17,CCAATTCA,0.0222
18,CATGTGCA,-0.127
19,AGCATGGC,-0.271
20,AGTTACCA,0.00205
21,CCTGTACA,-0.0612
22,ACGGAGGG,-0.142
23,AGGAGACG,-0.293
24,GCGGGATA,-0.0993
25,CGCAAGAC,-0.0949

row,Sequence,PBM E-score
1,ATACATAA,0.274
2,GCCATATA,-0.00751
3,CCACACAG,-0.178
4,CAGGCATG,-0.04
5,AACGATGT,0.0478
6,AGCTCCCT,-0.18
7,GCTCTGGA,-0.0394
8,AGCGATCC,-0.0455
9,CAGCGACG,-0.119
10,GCTAGACC,-0.129
11,ATGCAGGA,-0.197
12,CATAGAAA,0.214
13,GTTACGTA,-0.225
14,ATAACCAG,0.173
15,ATCGCCAG,-0.0985
16,AATGAGAT,0.239
17,AAGCGTAG,0.0949
18,CCAAAGAC,0.0523
19,TAAGTCCA,0.0529
20,ACACAAGT,0.0119
21,GACGCCCC,-0.207
22,CCAGATGC,-0.302
23,ATTCTCTA,0.105
24,GTAGATAA,0.23
25,ATATCAGA,0.112

row,Sequence,PBM E-score
1,TCCTCCGA,0.0213
2,TCGCCGAA,-0.0725
3,CGTGTTTC,0.0675
4,ACAAATTA,0.186
5,ATGGGTCA,-0.11
6,AGTGCATA,-0.149
7,ATCTCCCC,-0.285
8,GGTTCGAC,-0.164
9,CAACCATC,0.00256
10,AACGGGCC,-0.172
11,CAGAGAGC,-0.19
12,ACTACGCA,-0.00835
13,CCATCCCA,-0.0246
14,AATGTGTC,0.116
15,TGACACAA,-0.0202
16,CCCTTAGA,-0.208
17,CGTTCTCA,-0.184
18,AGAATTAC,0.153
19,CCAGACCA,-0.139
20,GAATGTCA,-0.145
21,CTCACACA,-0.215
22,GCTAGAAA,0.0408
